Measured values: PubChem BioAssay AID1347073 (National Center for Advancing Translational Sciences (NCATS), 2019)
About 200 (0.44%) of roughly 45,000 compounds were called active. About 7% were inconclusive and are not listed. Calls follow the shape of the dose curve; as a rule, active = well fitted activation curve with a large enough effect; inconclusive = small, poorly fitted or top-dose-only effect; inactive = no such curve, though single readings can be large or run the other way. The list shows a part of the results.

Test: qHTS of TDP-43 Inhibitors: NCGC Sytravon Library Screen; also: 0% is about no effect; nearly all actives have a fitted effect of over 55% in size
Conditions: yeast TDP-43 toxicity rescue, BacTiter-Glo growth, 24 h; series mostly up to 46.1 µM; growth rescue (activation): at the top concentration
In short: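 TDP-43-expressing yeast, pregrown in raffinose, seeded at OD600 0.02 in galactose medium with compound for 24 hr at 30 deg C. Growth read by BacTiter-Glo luminescence, so rescue of toxicity appears as activation.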

Row | Structure (SMILES) | growth rescue (activation)
1 | CN(C)c1ccc(CN(Cc2ccco2)C(=O)c2ccc(C(C)(C)C)cc2)cc1 | inactive: 14.4%
2 | CC1CC(C)CN(CCCNC(=O)c2cn(C)c3ccc(S(=O)(=O)N4CCCC4)cc3c2=O)C1 (configuration not stated) | inactive: 3.96%
3 | O=C(Nc1ccc(F)cc1)N(CCCN1CCOCC1)Cc1cc2cc3c(cc2[nH]c1=O)OCCO3 | inactive: -11.8%
4 | CCCOc1ccc(C(=O)Nc2ccc3oc(-c4ccncc4)nc3c2)cc1 | inactive: 15.7%
5 | CC1CCN(CC(=O)Nc2sc3c(c2C#N)CCC3)CC1 | inactive: -2.25%
6 | CC(OC(=O)C1=COCCO1)C(=O)NC1(C#N)CCCCC1 (configuration not stated) | inactive: -4.5%
7 | CN(CC(=O)NCCCN1CCOCC1)S(=O)(=O)c1ccc(Br)cc1 | inactive: 14.7%
8 | Cc1ccc(C)c(S(=O)(=O)Nc2ccc(-n3cnnn3)cc2)c1 | inactive: 11%
9 | Cc1cc2c(=O)n(C)c(SCC(=O)Nc3cccc(F)c3)nc2s1 | inactive: -21.6%
10 | O=Cc1cc([N+](=O)[O-])ccc1N1CCN(Cc2ccc3c(c2)OCO3)CC1 | inactive: -10.2%
11 | COc1ccc(OCCN2CCN(S(=O)(=O)c3ccccc3C#N)CC2)cc1 | inactive: -6.86%
12 | Cc1ccc(N(C(=O)c2csnn2)C(C(=O)NC2CCCC2)c2cccnc2)c(C)c1 (configuration not stated) | inactive: -14.5%
13 | O=C(CCCOc1ccccc1)Nc1ncccn1 | inactive: -15%
14 | COc1ccc(/C=C/C(=O)NC(=S)NNC(=O)c2cccs2)cc1 | inactive: 16.5%
15 | O=C(c1ccco1)N1CCCC(c2nc3c(nnn3Cc3ccc(F)cc3)c(=O)[nH]2)C1 (configuration not stated) | inactive: 5.12%
16 | CCCNC(=O)CN1C(=O)NC(CC)(c2ccc(F)cc2)C1=O (configuration not stated) | inactive: -2.72%
17 | CCOC(=O)/C=C1/SCC(=O)N1CC(=O)NC12CC3CC(CC(C3)C1)C2 | inactive: -6.98%
18 | COc1ccc(S(=O)(=O)Nc2nc3c(s2)C(=O)CC(C)(C)C3)cc1 | inactive: -26.1%
19 | OC(c1cccc(F)c1)c1ncc(-c2ccc(C(F)(F)F)cc2)[nH]1 (configuration not stated) | inactive: 4.15%
20 | CC(C)CNC(=O)[C@H](Cc1ccccc1)NC(=O)c1cccs1 | inactive: 16%
21 | CCc1ccc(N2CC(C(=O)OCC(=O)NC3CC3)CC2=O)cc1 (configuration not stated) | inactive: -5.09%
22 | CC(C)c1cc(CN2CCN(Cc3ccc(F)c(F)c3)C(CCO)C2)[nH]n1 (configuration not stated) | inactive: 3.49%
23 | O=C(CCNC(=O)c1ccco1)Nc1nc2ccccc2s1 | inactive: 0.531%
24 | CCCCN1CC(O)=C(c2nc3ccccc3[nH]2)C1=N | inactive: 18.2%
25 | CCOC(=O)N1CCN(C(=O)c2cc(COc3ccc4ncccc4c3)on2)CC1 | inactive: 1.21%
26 | O=C(COC(=O)c1ccc(Br)o1)Nc1ncc(Cl)cc1Cl | inactive: 11.6%

Row | Structure (SMILES) | growth rescue (activation)
27 | COC(=O)c1cnc(NC(=O)C2(C)CCN2C(=O)C(C)C)s1 (configuration not stated) | inactive: 11.6%
28 | CN(CC(=O)Nc1cccc(F)c1)CC(=O)Nc1ccccc1-c1ccccc1 | inactive: 16.8%
29 | COc1ccccc1NC(=O)NC(=O)c1ccccc1 | inactive: 11.8%
30 | CCOc1cc(/C=C(\C#N)C(=O)Nc2cccc(C(=O)O)c2)ccc1OCc1ccc(Br)cc1 | inactive: -0.944%
31 | COc1ccc(C=NNc2ccc([N+](=O)[O-])cc2S(=O)(=O)Nc2ccccc2C(=O)O)cc1OC | inactive: 16.2%
32 | COc1cccc(/C=N/Nc2ccnc(=O)[nH]2)c1O | inactive: 21%
33 | CCOc1cc(/C=C2\SC(=S)N(NC(=O)c3cccnc3)C2=O)ccc1O | inactive: -21.5%
34 | Cn1nccc1C(=O)OCC(=O)Nc1ccccc1Cl | inactive: 10.2%
35 | O=C(NCC1CCCO1)c1ccc2c(c1)C(=O)N(c1cccc([N+](=O)[O-])c1)C2=O (configuration not stated) | inactive: 0.0745%
36 | Cc1ccc(C)c(NC(=O)/C(C#N)=C/c2cn(CC(=O)NCc3ccco3)c3ccccc23)c1 | inactive: 22.2%
37 | CCCCn1nc(NC(=O)c2cccc(Cl)c2)c2cc3cccc(C)c3nc21 | inactive: 5.05%
38 | COc1ccc(C(=O)Nc2ccc(Oc3ncnc4sc(-c5ccccc5)cc34)cc2)cc1OC | inactive: 9.86%
39 | COc1ccc(OC)c(NC(=O)c2cc(-c3cc(F)ccc3OCC3CCCO3)n[nH]2)c1 (configuration not stated) | inactive: 29.1%
40 | COc1ccc2[nH]c(=O)c(CN(Cc3cccs3)C(=S)Nc3cccc(C)c3)cc2c1 | inactive: -12.5%
41 | COCc1c(C(=O)N2CCN(Cc3ccc(C#N)cc3)CC2)oc2ccccc12 | inactive: 3.07%
42 | CNC(=O)C1CC(=O)N(c2ccc(OCC(=O)Nc3ccccc3C)cc2)C1 (configuration not stated) | inactive: 25.4%
43 | O=C(Nc1ccccc1NC(=O)c1ccccc1F)c1ccccc1F | inactive: -6.73%
44 | O=C(CNCC1CCCCC1)Nc1ccc(OC(F)(F)F)cc1 | inactive: -7.79%
45 | CCCC(c1nnnn1CS(=O)(=O)c1ccc(C)cc1)N1CCC(C(N)=O)CC1 (configuration not stated) | inactive: -28.6%
46 | COc1ccc2nc(SCC(=O)NCc3ccc(S(N)(=O)=O)cc3)[nH]c2c1 | inactive: -16.3%
47 | CCOC(=O)c1cccc(NC(=O)/C=C/c2ccc3c(c2)OCO3)c1 | inactive: 4.13%
48 | CC(=O)Nc1ccc(-c2ccnc3c2CC(C(=O)Nc2cccc(N(C)C)c2)O3)cc1 (configuration not stated) | inactive: -5.24%
49 | CC(C)(C)c1ccc(/C=C2\Oc3cc(OC(=O)N4CCOCC4)ccc3C2=O)cc1 | inactive: 19.6%
50 | COc1ccc(Nc2nc(C(=O)N(CCO)Cc3ccccc3)cs2)cc1 | inactive: -1.27%
51 | Cc1ccc(CN2CCN(Cc3ccc(-n4cccn4)cc3C)CC2CCO)cc1 (configuration not stated) | inactive: -11.2%
52 | CCCc1ncc(C(O)c2ccccc2OC)n1C (configuration not stated) | inactive: -0.574%
